Assay results taken from paper PMC13586351.
Results are given in words; binding and its absence hold for the method and conditions named. For some assays here: Binding seen in cells or lysates may run through a third protein. Some entries that bind do so weakly or less than the wild type.

Sequences of proteins named here, by UniProt entry; tags and fusion partners are left off.
UniProt Q17RN3: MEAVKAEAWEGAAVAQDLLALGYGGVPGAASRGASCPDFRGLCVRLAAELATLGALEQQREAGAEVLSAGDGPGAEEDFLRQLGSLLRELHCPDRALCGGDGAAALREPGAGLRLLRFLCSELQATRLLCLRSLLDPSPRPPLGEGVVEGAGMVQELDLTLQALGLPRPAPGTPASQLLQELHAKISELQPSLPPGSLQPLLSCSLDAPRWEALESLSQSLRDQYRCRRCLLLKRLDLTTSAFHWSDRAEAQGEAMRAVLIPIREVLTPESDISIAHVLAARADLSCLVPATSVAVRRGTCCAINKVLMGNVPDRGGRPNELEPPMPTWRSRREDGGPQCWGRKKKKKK
UniProt Q9BVC5: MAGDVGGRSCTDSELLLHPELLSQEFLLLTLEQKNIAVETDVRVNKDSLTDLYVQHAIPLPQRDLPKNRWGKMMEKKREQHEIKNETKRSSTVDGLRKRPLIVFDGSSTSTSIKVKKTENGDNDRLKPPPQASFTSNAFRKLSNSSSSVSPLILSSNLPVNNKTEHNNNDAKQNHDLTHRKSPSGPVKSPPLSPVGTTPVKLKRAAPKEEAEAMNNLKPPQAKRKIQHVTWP

T1: CGI-99 (full-length, minimal tRNA-LC, insect cells) (human) (UniProt Q9Y224)
T1 sequence: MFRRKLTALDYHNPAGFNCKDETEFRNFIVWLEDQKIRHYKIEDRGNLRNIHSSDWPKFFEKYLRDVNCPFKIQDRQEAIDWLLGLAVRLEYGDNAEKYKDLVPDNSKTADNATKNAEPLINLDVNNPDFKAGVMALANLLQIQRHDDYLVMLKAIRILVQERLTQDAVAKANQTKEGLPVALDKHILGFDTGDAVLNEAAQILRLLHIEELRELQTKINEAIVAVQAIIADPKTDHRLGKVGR

T2: RTCB (full-length, minimal tRNA-LC, insect cells) (human) (UniProt Q9Y3I0)
T2 sequence: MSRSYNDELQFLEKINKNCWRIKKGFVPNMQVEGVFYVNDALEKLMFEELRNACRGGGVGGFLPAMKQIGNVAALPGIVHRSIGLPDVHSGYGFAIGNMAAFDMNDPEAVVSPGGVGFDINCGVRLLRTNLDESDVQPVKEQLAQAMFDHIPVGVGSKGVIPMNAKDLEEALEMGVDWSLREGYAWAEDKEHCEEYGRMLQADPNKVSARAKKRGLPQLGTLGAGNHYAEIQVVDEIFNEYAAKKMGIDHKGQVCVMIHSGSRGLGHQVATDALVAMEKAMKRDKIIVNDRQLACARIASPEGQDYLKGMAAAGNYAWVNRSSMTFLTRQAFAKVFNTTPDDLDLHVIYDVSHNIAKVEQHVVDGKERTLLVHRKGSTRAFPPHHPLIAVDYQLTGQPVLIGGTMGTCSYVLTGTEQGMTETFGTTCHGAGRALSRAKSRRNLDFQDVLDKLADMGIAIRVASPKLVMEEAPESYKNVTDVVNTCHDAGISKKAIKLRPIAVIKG


Key:
[1] = biological target: SBP-tagged FAM98A (HEK293T) (human) (UniProt Q8NCA5); assay: co-IP; streptavidin affinity co-precipitation from HEK293T lysate with SBP-tagged FAM98A/B/C constructs, co-expressed with the other tRNA-LC subunits; immunoblot
[2] = biological target: SBP-tagged FAM98C (HEK293T) (human) (UniProt Q17RN3); assay: as above
[3] = biological target: T1, CGI-99 (full-length, minimal tRNA-LC, insect cells) (human); assay: SEC; RTCB complexes with FAM98A/B/C co-expressed in insect cells, affinity purified, then size exclusion chromatography and SDS-PAGE; both purified
[4] = biological target: T2, RTCB (full-length, minimal tRNA-LC, insect cells) (human); assay: as above
[5] = biological target: FAM98C (insect cells, reconstituted RTCB complex) (human) (UniProt Q17RN3); assay: as above
[6] = biological target: FAM98A (insect cells, reconstituted RTCB complex) (human) (UniProt Q8NCA5); assay: as above

Molecule | binding [3] | binding [4] | further results
Ashwin wild type (HEK293T) (from UniProt Q9BVC5 1-232) |  |  | binding [1]: no binding; binding [2]: no binding
DDX1 (insect cells, reconstituted FAM98A/C RTCB complexes) (enzyme, UniProt Q92499 1-740) MAAFSEMGVMPEIAQAVEEMDWLLPTDIQAESIPLILGGGDVLMAAETGSGKTGAFSIPVIQIVYETLKDQQEGKKGKTTIKTGASVLNKWQMNPYDRGSAFAIGSDGLCCQSREVKEWHGCRATKGLMKGKHYYEVSCHDQGLCRVGWSTMQASLDLGTDKFGFGFGGTGKKSHNKQFDNYGEEFTMHDTIGCYLDIDKGHVKFSKNGKDLGLAFEIPPHMKNQALFPACVLKNAELKFNFGEEEFKFPPKDGFVALSKAPDGYIVKSQHSGNAQVTQTKFLPNAPKALIVEPSRELAEQTLNNIKQFKKYIDNPKLRELLIIGGVAARDQLSVLENGVDIVVGTPGRLDDLVSTGKLNLSQVRFLVLDEADGLLSQGYSDFINRMHNQIPQVTSDGKRLQVIVCSATLHSFDVKKLSEKIMHFPTWVDLKGEDSVPDTVHHVVVPVNPKTDRLWERLGKSHIRTDDVHAKDNTRPGANSPEMWSEAIKILKGEYAVRAIKEHKMDQAIIFCRTKIDCDNLEQYFIQQGGGPDKKGHQFSCVCLHGDRKPHERKQNLERFKKGDVRFLICTDVAARGIDIHGVPYVINVTLPDEKQNYVHRIGRVGRAERMGLAISLVATEKEKVWYHVCSSRGKGCYNTRLKEDGGCTIWYNEMQLLSEIEEHLNCTISQVEPDIKVPVDEFDGKVTYGQKRAAGGGSYKGHVDILAPTVQELAALEKEAQTSFLHLGYLPNQLFRTF |  |  | binding [5]: binds; binding [6]: binds

More lines, main results first:

binding [3] | binding [4] | Molecule | further results
binds | binds | FAM98A (insect cells, reconstituted RTCB complex) (from UniProt Q8NCA5 1-518) | 
binds | binds | FAM98C (insect cells, reconstituted RTCB complex) (from UniProt Q17RN3 1-349) | 
